Laboratory results published in PubChem BioAssay AID1345083 (National Center for Advancing Translational Sciences (NCATS), 2018).
Values joined by “and” are separate entries in the source; they are usually repeats but may differ in a detail not shown here. Equal entries are not always repeated. Screen size: about 94,000 compounds; about 6,200 (6.6%) were called active. The shares of active, inactive and inconclusive entries below differ from those in the screen. Calls come from the whole dose curve; as a rule, active = well fitted inhibition curve with a large enough effect; inconclusive = small, poorly fitted or top-dose-only effect; inactive = flat fitted curve, though single readings scatter. Potencies beside an inconclusive call are fits to weak or partial responses and may not hold up.
% is set by controls: 0 for no effect and ±100 for the full control effect; potency is the fitted concentration of half-maximal effect; tags give direction and shape of the fitted curve.

Assay: Cytotoxic Profiling in HEK 293 Cell Line of Diverse Libraries Using Quantitative High-Throughput Screening; note: nearly all actives have a fitted effect of over 60% in size
Conditions: HEK 293 viability, ATP luminescence (CellTiter-Glo), 48-72 h; activity change, negative = cytotoxicity: at 115 µM (top of the series) unless noted; series mostly up to 115 µM
Method in brief: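 Read-out: CellTiter-Glo ATP luminescence. Cells: HEK 293, 250 cells/well. Exposure: 48 or 72 hr, 37 degree Celsius.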
For `COc1ccc(C2(C(=O)N3CCN(Cc4ccccc4)CC3)CCOCC2)cc1`, the “activity change, negative = cytotoxicity” value was inactive: -12.5%.
With `CC(=O)N1CCc2[nH]cnc2C12CCN(C(=O)C(C)Oc1ccccc1)CC2` (configuration not stated) the Potency was inconclusive: 89.1 µM [inhibitor, single point].
With `O=C(Cc1cccc(F)c1)NC1CCN(c2cc(-c3ccc(Cl)cc3)[nH]n2)CC1` the Potency was inconclusive: 44.7 µM [inhibitor, partial curve, poor fit].
In the case of `O=C(Nc1ccc(Cl)cc1)c1cc2n(n1)CC(c1ccc(Cl)cc1)OC2` (configuration not stated), the Potency is reported as inconclusive: 79.4 µM [inhibitor, partial curve, poor fit].
For `COc1ccc(Nc2ccnc(N3CCCC(C(=O)NCc4cccs4)C3)n2)cc1` (configuration not stated), the Potency was active: 35.5 µM.
For `COCCN1CCOc2nc(-c3ccc(Oc4ccccc4)cc3)ncc2C1=O`, the Potency was active: 56.2 µM.
For `O=C(c1cccnc1)N1CCC2(CC1)NCCc1c2[nH]c2ccccc12`, the “activity change, negative = cytotoxicity” value was inactive: -5.49%.
For `Cc1ccccc1C(=O)N1CCC(C(=O)N2CCC(N3CCOCC3=O)CC2)CC1`, the “activity change, negative = cytotoxicity” value was inactive: 3.29%.
With `COCCN1C(=O)CCc2cc(NC(=O)c3ccc(C)c(C)c3)ccc21` the Potency was inconclusive: 31.6 µM [inhibitor, partial curve, poor fit].
In the case of `Cn1cccc1CN1CC[C@@H]2C(=O)NCCCCCCN(Cc3ccncc3)[C@@H]2C1`, the Potency is reported as inconclusive: 89.1 µM [inhibitor, single point].
For `Cc1cnc(CC2CCN(C(=O)C3CCCC3)C2)n1C1CC1` (configuration not stated), the Potency was inconclusive: 56.2 µM [inhibitor, partial curve, poor fit].
In the case of `COc1ccc(-c2nc3c(C)cccc3cc2CN(C)Cc2ncc[nH]2)cc1OC`, the Potency is reported as inconclusive: 89.1 µM [inhibitor, single point].
With `CN1C[C@@H](NC(=O)c2ccc(F)cc2)C[C@H]1c1nc(-c2ccc3c(c2)OCO3)no1` the Potency was active: 79.4 µM.
In the case of `COc1ccccc1-c1ccc(C(=O)N2CCC(C(=O)NCc3cccs3)CC2)cc1`, the Potency is reported as inconclusive: 89.1 µM [inhibitor, single point].
For `COCC(=O)N1CCN2C(=O)c3cc(-c4ccc5c(c4)OCO5)ccc3NC(=O)[C@H]2C1`, the Potency was inconclusive: 126 µM [inhibitor, single point].
For `O[C@@H]1C[C@@H](c2nc(-c3ccc4c(c3)OCO4)no2)N(CC2CC2)C1`, the Potency was inconclusive: 56.2 µM [inhibitor, partial curve, poor fit].
In the case of `CC(C)c1ccc(S(=O)(=O)c2nnn3c2nc(NC2CCCC2)c2ccccc23)cc1`, the “activity change, negative = cytotoxicity” value is reported as inactive: 3.39%.
With `CCn1nccc1C(=O)N1CCC2(CC1)CC(N1CCN(c3ccccn3)CC1)CCO2` (configuration not stated) the Potency was inconclusive: 56.2 µM [inhibitor, partial curve, poor fit].
In the case of `NC1CC(c2cc(N3CCN(CCOc4ccccc4)CC3)ncn2)C1` (configuration not stated), the Potency is reported as active: 22.4 µM.
In the case of `O=C(O)[C@]12CCCN[C@@H]1CCN(Cc1cnc(-c3ccccn3)nc1)C2`, the “outcome” value is reported as “inactive”.
For `COC(=O)[C@H](CC1CCCCC1)NC(=O)[C@@H]1CN(C(=O)c2ccc(N(C)C)cc2)CCN1C(C)=O`, the “activity change, negative = cytotoxicity” value was inactive: -5.33%.
In the case of `CCc1c(C(=O)N2CCCC3(CCNC3)C2)[nH]c2ccccc12` (configuration not stated), the Potency is reported as inconclusive: 50.1 µM [inhibitor, partial curve, poor fit].
With `Cc1ccc(C)c(NC(=O)CN2C(=O)NC3(CCC(C)CC3)C2=O)c1` (configuration not stated) the Potency was inconclusive: 44.7 µM [inhibitor, partial curve, poor fit].
In the case of `Cc1c(C(C)NC(=O)c2cc(=O)[nH]c(=O)[nH]2)cnn1-c1cccc2ccccc12` (configuration not stated), the Potency is reported as inconclusive: 79.4 µM [inhibitor, partial curve, poor fit].
For `CCN1c2cc(C(=O)NCc3ccccc3Cl)ccc2C(=O)N2CCCCCC21` (configuration not stated), the Potency was inconclusive: 22.4 µM [inhibitor, partial curve, poor fit].
For `CCCN1C(=O)Cc2ccccc2C1C(=O)NCc1ccc(F)c(Cl)c1` (configuration not stated), the Potency was inconclusive: 70.8 µM [inhibitor, partial curve, poor fit].
In the case of `Cc1noc(C)c1[S+](=O)([O-])N1CCC2(CC1)CC(c1cccc(C(F)(F)F)c1)=NO2`, the Potency is reported as inconclusive: 3.98 µM [inhibitor, full curve, poor fit].
For `CCOc1ccccc1NC(=O)N1CCC(c2cc(-c3cccc(OC)c3)n[nH]2)CC1`, the Potency was inconclusive: 50.1 µM [inhibitor, partial curve, poor fit].
For `O=C(NCCN1C(=O)C2(CCCCC2)C1c1ccccc1)NCc1ccccc1` (configuration not stated), the Potency was inconclusive: 70.8 µM [inhibitor, partial curve, poor fit].
With `CCc1noc(-c2cn(C3CCN(C(=O)COc4ccccc4)C3)nn2)n1` (configuration not stated) the “activity change, negative = cytotoxicity” value was inactive: -1.47%.
In the case of `CCc1ccc(C(=O)N2CCC(Cc3nc(-c4ccc(OC)cc4)no3)CC2)cc1`, the Potency is reported as inconclusive: 28.2 µM [inhibitor, partial curve, poor fit].
In the case of `COc1ccccc1C(=O)N1CCC(C(=O)N2CCCC2c2nc3ccncc3[nH]2)CC1` (configuration not stated), the “activity change, negative = cytotoxicity” value is reported as inactive: -17.4%.
In the case of `COc1ccc(-c2cc(C(=O)NCCc3cnc[nH]3)c3c(c2)N(C)CCO3)cn1`, the Potency is reported as inconclusive: 112 µM [inhibitor, single point].
For `C#CCNC(=O)c1cc(-c2ccc([S+](C)(=O)[O-])cc2)nc2c1cnn2C`, the Potency was inconclusive: 25.1 µM [inhibitor, full curve, poor fit].
For `COc1ccc(C(=O)NC2CCCN(c3cc(-c4ccc(F)cc4)[nH]n3)C2)c(C)c1` (configuration not stated), the Potency was inconclusive: 56.2 µM [inhibitor, partial curve, poor fit].
With `CCOC(=O)[C@H]1C[C@]2(CCCCNC2=O)N(C(=O)c2cccc(OC)c2)[C@H]1c1ccco1` the “activity change, negative = cytotoxicity” value was inactive: -13.3%.
In the case of `Cc1c(C(=O)N(C)Cc2cc(-c3cccnc3)no2)oc2c(F)cccc12`, the Potency is reported as inconclusive: 56.2 µM [inhibitor, partial curve, poor fit].
With `COc1ccccc1C(=O)Nc1ccc([C@H]2OCC(=O)N(Cc3cccnc3)[C@@H]2CO)cc1` the Potency was inconclusive: 89.1 µM [inhibitor, single point].
With `O=C(NCCN1CCOCC1)C1CCc2ncc(-c3ccc(F)cc3)n2C1` (configuration not stated) the “outcome” value was “inactive”.
In the case of `O=C1COc2ccc(Nc3ccccc3)nc2CN1Cc1ccccc1`, the Potency is reported as inconclusive: 89.1 µM [inhibitor, partial curve].
In the case of `Cc1ccc(-c2ccccc2CN2CCN(C(=O)C(C)(C)C)CC2)cc1Cl`, the Potency is reported as inconclusive: 31.6 µM [inhibitor, partial curve, poor fit].
For `CCOc1ccc(CC(=O)NC2CCN(c3cc(-c4ccccc4)[nH]n3)CC2)cc1`, the Potency was inconclusive: 35.5 µM [inhibitor, partial curve].
For `COc1ccc(-c2nc(C)nc3c2CCN(Cc2cccc4ccccc24)CC3)cc1`, the Potency was active: 39.8 µM.
With `CC(NC1CCN(c2ccc(NC(=O)C3CCCC3)cc2)CC1)c1cccs1` (configuration not stated) the “activity change, negative = cytotoxicity” value was inactive: 4.78%.
For `CC(NC(=O)c1cc2c(s1)CCN(C(=O)c1ccccc1)C2)c1ccc(F)cc1` (configuration not stated), the Potency was inconclusive: 50.1 µM [inhibitor, partial curve, poor fit].
In the case of `CC(C)C[C@@H]1N[C@H](C(=O)NCc2ccccc2)Cc2cn(Cc3ccncc3)c3cccc1c23`, the Potency is reported as inconclusive: 44.7 µM [inhibitor, partial curve, poor fit].
In the case of `O=C1COc2ccc(N3CCCC3)nc2CN1Cc1ccccc1`, the Potency is reported as inconclusive: 89.1 µM [inhibitor, partial curve, poor fit].
In the case of `O=C(COc1ccccc1)Nc1ccc([C@@H](O)[C@H]2COCC(=O)N2Cc2ccc(C(F)(F)F)cc2)cc1`, the Potency is reported as active: 39.8 µM.
For `CN(c1ccccc1)c1ccc2nnc(-c3cc(C(=O)NC4CCC(O)CC4)ccn3)n2n1` (configuration not stated), the “activity change, negative = cytotoxicity” value was inactive: -10.1%.
With `O=C1NCc2ccccc2CC12CCCN(Cc1cccc(Cl)c1)C2` (configuration not stated) the Potency was inconclusive: 89.1 µM [inhibitor, partial curve].
For `COc1cc(NC(=O)c2ccc(Cn3ccn4nc5c(c4c3=O)CCCC5)cc2)cc(OC)c1OC`, the Potency was inconclusive: 22.4 µM [inhibitor, full curve, poor fit].
For `COc1ccc(-c2ccc3c(c2)C(=O)N2CC[C@H](NS(=O)(=O)c4cccs4)[C@H]2C(=O)N3)cc1`, the Potency was active: 22.4 µM.
In the case of `COc1c[nH]c(CN2CCCC(CCc3ccccc3C(F)(F)F)C2)cc1=O` (configuration not stated), the Potency is reported as inconclusive: 50.1 µM [inhibitor, partial curve, poor fit].
In the case of `C[C@@H]1CN(C(=O)CCN2CCCCCC2=O)C[C@]1(C)O`, the “outcome” value is reported as “inactive”.
With `CCN(CC)c1cc(CCC(=O)NCCN(C)C2CCCCC2)ccn1` the Potency was inconclusive: 89.1 µM [inhibitor, single point].
With `CNC(=O)C1CCCN(Cc2cccc(-c3ccccc3OC)c2)C1` (configuration not stated) the Potency was inconclusive: 79.4 µM [inhibitor, single point].
In the case of `O=C(NCC(F)(F)F)c1ccc2oc(-c3cccnc3)nc2c1`, the Potency is reported as inconclusive: 79.4 µM [inhibitor, single point].
In the case of `O=C(Cn1ccn2nc(-c3ccc(F)cc3)c(CO)c2c1=O)Nc1ccc(F)c(F)c1`, the Potency is reported as inconclusive: 39.8 µM [inhibitor, partial curve, poor fit].
With `O=S(=O)(c1ccccc1)N1CCN(c2cc(C3CC(O)C3)ncn2)CC1` (configuration not stated) the Potency was active: 39.8 µM and inconclusive: 35.5 µM [inhibitor, full curve].
In the case of `COc1ccc(CN2C=C(C(=O)OCc3nc(-c4cccc(C)c4)no3)C(C)=NS2(=O)=O)cc1`, the Potency is reported as inconclusive: 31.6 µM [inhibitor, full curve].
In the case of `COc1ccc(CCC(=O)N2CCC3(CC2)CC(O)CCO3)cc1` (configuration not stated), the “activity change, negative = cytotoxicity” value is reported as inactive: 9.16%.
In the case of `C=CCC(=O)N(CC1CCN(CCc2ccccc2C)CC1)C1CCCC1`, the Potency is reported as inconclusive: 79.4 µM [inhibitor, partial curve, poor fit].
